# The campaign covered roughly 310,000 compounds. About 14,000 (4.5%) showed an effect of 50% or more. Effects have a minus sign here. The list shows a part of the results.
# Target: human ether-à-go-go-related gene (hERG) potassium channel (human, UniProt Q12809)
# Assay: primary screen, population patch clamp on CHO cells stably expressing hERG
# 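Further: peak tail current of the secondary pulse compared with the same well before compound.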
# human ether-à-go-go-related gene (hERG) potassium channel, sequence (Q12809 whole entry, looked up): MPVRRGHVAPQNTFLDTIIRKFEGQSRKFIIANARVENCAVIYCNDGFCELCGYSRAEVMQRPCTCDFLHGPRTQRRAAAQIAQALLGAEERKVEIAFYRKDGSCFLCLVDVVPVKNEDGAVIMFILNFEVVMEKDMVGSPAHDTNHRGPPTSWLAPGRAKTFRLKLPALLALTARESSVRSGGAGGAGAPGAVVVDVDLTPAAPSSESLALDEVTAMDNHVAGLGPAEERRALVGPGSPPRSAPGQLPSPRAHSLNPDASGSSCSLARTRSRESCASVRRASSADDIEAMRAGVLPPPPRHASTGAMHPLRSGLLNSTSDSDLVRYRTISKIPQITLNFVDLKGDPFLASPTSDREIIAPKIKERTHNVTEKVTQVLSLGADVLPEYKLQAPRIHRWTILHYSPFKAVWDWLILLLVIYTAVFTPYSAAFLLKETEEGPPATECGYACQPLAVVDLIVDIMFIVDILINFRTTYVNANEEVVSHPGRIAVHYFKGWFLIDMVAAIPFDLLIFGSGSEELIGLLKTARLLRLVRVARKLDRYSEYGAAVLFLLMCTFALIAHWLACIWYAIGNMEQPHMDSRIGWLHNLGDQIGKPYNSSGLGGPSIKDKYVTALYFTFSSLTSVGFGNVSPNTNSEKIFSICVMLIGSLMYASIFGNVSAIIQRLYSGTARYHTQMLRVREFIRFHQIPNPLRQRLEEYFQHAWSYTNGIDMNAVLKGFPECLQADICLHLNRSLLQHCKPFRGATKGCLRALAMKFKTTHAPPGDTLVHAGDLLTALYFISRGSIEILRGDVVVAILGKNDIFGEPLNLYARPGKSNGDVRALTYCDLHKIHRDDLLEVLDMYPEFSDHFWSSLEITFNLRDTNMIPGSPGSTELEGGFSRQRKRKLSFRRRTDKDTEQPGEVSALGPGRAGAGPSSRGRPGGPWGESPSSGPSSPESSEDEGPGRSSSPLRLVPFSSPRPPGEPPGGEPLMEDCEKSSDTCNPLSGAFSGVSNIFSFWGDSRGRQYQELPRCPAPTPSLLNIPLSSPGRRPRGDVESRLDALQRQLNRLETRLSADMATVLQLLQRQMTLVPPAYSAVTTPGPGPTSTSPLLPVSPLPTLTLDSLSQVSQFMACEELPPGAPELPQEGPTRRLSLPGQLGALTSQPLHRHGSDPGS
row,SMILES,"hERG current change (%, negative = inhibition) at 10uM"
1,CCOc1ccc(OCCSc2ccc(S(=O)(=O)N3CCN(C)CC3)cn2)cc1,-40.1%
2,COc1ccc(S(=O)(=O)N2CCC(C(=O)N[C@@H](C)C(=O)NCc3ccc(F)cc3)CC2)cc1,1.43%
3,COc1ccccc1-c1cc(C(=O)N2CCN(c3ccccc3OC)CC2)no1,12%
4,Cc1ccc(-c2cc(Cc3ccncc3)c(=O)[nH]n2)cc1,-37.2%
5,NC(=O)c1c(NC(=O)C(=O)NCCCN2CCOCC2)sc2c1CCCC2,-21.9%
6,Cc1ccc(NS(=O)(=O)c2cc(C(=O)NCc3ccncc3)ccc2C)cc1,-29.6%
7,CCn1c(SCC(=O)Nc2nc3ccccc3s2)nc2c(c1=O)SC(C)C2 (centres unmarked),-25.8%
8,CC(Sc1nncn1C)C(=O)Nc1nnc(C(C)C)s1 (centres unmarked),3.52%
9,COc1ccc(N=C2SC(CC(=O)Nc3ccccc3)C(=O)N2CC2CCCO2)cc1 (centres unmarked),5.95%
10,O=C(Nc1nnc(C2CC2)s1)C1CCCCN1S(=O)(=O)c1ccccc1 (centres unmarked),10.2%
11,CCOC(=O)c1cnc2c(OC)cccc2c1N1CC(C)CC(C)C1 (centres unmarked),-17.1%
12,[O-][n+]1ccc(C2CC2)cc1,7.13%
13,Cc1cc(C(=O)Nc2ccc(F)cc2)c2ccccc2n1,-0.679%
14,CCN(CC)CCNC(=O)c1ccc(NC(=O)C2CCN(S(=O)(=O)c3ccc4c(c3)OCCO4)CC2)cc1,25.8%
15,COc1cnc(-c2ccccn2)nc1Sc1ccc(C)cc1,8.52%
16,O=C(Nc1ccc(N2CCCC2)c(Cl)c1)c1ccc([N+](=O)[O-])cc1,15.9%
17,NC(=O)c1ccccc1NS(=O)(=O)Cc1ccccc1,14.8%
18,Cc1cccc(OCC(=O)O/N=C(\N)c2ccc(Br)cc2)c1,7.71%
19,CCN(CC)c1ccc(/C=N/N2CCOCC2)c(O)c1,-2.51%
20,COc1ccc(Oc2ccc(S(=O)(=O)N3CCCCC3)cc2S(=O)(=O)N2CCCCC2)cc1,-6.19%
21,O=C(CN1CC=C(c2ccccc2)CC1)NC(=O)NCc1ccco1,-6.63%
22,Cc1noc(C)c1-c1nc(CSc2ccccc2)no1,5.46%

row,SMILES,"hERG current change (%, negative = inhibition) at 10uM"
1,CN(C)S(=O)(=O)c1ccc(NC(=O)c2ccc3ncsc3c2)cc1,3.79%
2,CCn1c(=O)c(C(=O)NCc2ccc(OC)c(OC)c2)c(O)c2ccccc21,18.4%
3,O=C1C2C3C=CC(C3)C2C(=O)N1CNc1ccc(O)cc1 (centres unmarked),-16.9%
4,CCOC(=O)c1cc(CC)sc1NC(=O)COC,-19.5%
5,CC(Sc1nnc(-c2ccncc2)n1C)C(=O)NCC1CCCO1 (centres unmarked),4.42%
6,COc1ccc(C2c3[nH]c4ccccc4c3C[C@H]3C(=O)N(CCCO)CC(=O)N23)c(OC)c1 (some centres unmarked),0.728%
7,COC(=O)C1=C(C(=O)OC)[C@@H]2N(C)c3ccccc3[C@@]23C[C@@H](CO)N(C(=O)c2cccs2)C3=N1,-4.01%
8,CC1CCN(S(=O)(=O)c2cccc(C(=O)NC3CCCC3)c2)CC1,-16.8%
9,CCOC(=O)C1CCCN(Cc2cc(Br)ccc2OC)C1 (centres unmarked),-24.7%
10,O=C(/C=C/c1c(Cl)cccc1Cl)NCCc1ccccc1,-0.235%
11,CC1CCC[C@H](O)CCCCCc2cc(O)cc(O)c2C(=O)O1 (some centres unmarked),5.64%
12,COc1ccc([N+](=O)[O-])cc1NC(=O)CSCc1ccccc1,-23.3%
13,COc1ccccc1CNC(=O)CCCn1nc(C)n2ccnc2c1=O,17%
14,COc1ccc(S(=O)(=O)N2CCN(C(=O)NCc3ccccc3)CC2)cc1,-6.79%
15,Cc1ccc2c(C(=O)CSc3ccccc3)c(C)[nH]c2c1,3.03%
16,O=C(N/N=C/C=C/c1ccccc1)c1ccccc1Br,12.7%
17,O=C(O)c1ccccc1-c1ccccc1C(=O)Nc1cccc(-c2nc3ccccc3o2)c1,13.1%
18,CCCOc1ccc(-c2c(C(=O)N/N=C(\C)c3ccco3)nnn2-c2nonc2N)cc1,22.5%
19,COc1cnc(-c2ccccn2)nc1Sc1c(Cl)cccc1Cl,1.45%
20,S=C(Nc1ccc(Br)cc1Cl)N1CCN(c2ccccn2)CC1,-4.02%
21,CC1(C)Cc2nc3sc(C(N)=O)c(N)c3cc2CO1,18.3%
22,O=C(Nc1nc2nccc(-c3ccccc3)n2n1)c1ccc(F)cc1,33.2%

# Reference: paper PMC4336329 (PLoS ONE, 2015)
